Reference: patent publication US20100086555A1

Tests used:
[1] = biological target: recombinant trimeric H5 HA (A/VN/1203/04) (influenza A virus A/VN/1203/04 (H5N1)); test: competition ELISA on recombinant trimeric H5 HA; competitor FLD21
[2] = biological target: H5 HA A/INDO/5/05 (on pseudotypes and on infectious virus) (influenza A virus A/INDO/5/05 (H5N1)); test: cell-based or functional assay
[3] = biological target: H5 HA A/Anhui/1/5 (on pseudotypes) (influenza A virus A/Anhui/1/5 (H5N1)); test: cell-based or functional assay
[4] = biological target: H5 HA A/HK/213/03 (on pseudotypes) (influenza A virus A/HK/213/03 (H5N1)); test: cell-based or functional assay
[5] = biological target: H5 HA A/HK/491/97 (on pseudotypes) (influenza A virus A/HK/491/97 (H5N1)); test: cell-based or functional assay
[6] = biological target: H5 HA A/WS/Mong/244/05 (on pseudotypes) (influenza A virus A/WS/Mong/244/05 (H5N1)); test: cell-based or functional assay
[7] = biological target: H9 HA A/ck/HK/G9/97 (on infectious virus) (influenza A virus A/ck/HK/G9/97 (H9N2)); test: cell-based or functional assay
[8] = biological target: H5 HA A/VN/1203/04 (on pseudotypes and on infectious virus) (influenza A virus A/VN/1203/04 (H5N1)); test: cell-based or functional assay
[9] = biological target: H1 HA A/SI/3/06 (on infectious virus) (influenza A virus A/SI/3/06 (H1N1)); test: cell-based or functional assay
[10] = biological target: H5 HA A/VN/1194/04 (on pseudotypes) (influenza A virus A/VN/1194/04 (H5N1)); test: cell-based or functional assay
[11] = biological target: H9 HA A/HK/1073/99 (on infectious virus) (influenza A virus A/HK/1073/99 (H9N2)); test: cell-based or functional assay
[12] = biological target: H1 HA A/SI/3/06 (ELISA antigen) (influenza A virus A/SI/3/06 (H1)); test: ELISA
[13] = biological target: recombinant trimeric H5 HA (A/VN/1203/04) (influenza A virus A/VN/1203/04 (H5N1)); test: ELISA
[14] = biological target: H5 HA A/INDO/5/05 (ELISA antigen) (influenza A virus A/INDO/5/05 (H5N1)); test: ELISA
[15] = biological target: H1 HA A/Texas/3/99 (ELISA antigen) (influenza A virus A/Texas/3/99 (H1)); test: ELISA
[16] = biological target: H9 HA A/HK/1073/99 (ELISA antigen) (influenza A virus A/HK/1073/99 (H9)); test: ELISA
[17] = biological target: recombinant trimeric H5 HA (A/VN/1203/04) (influenza A virus A/VN/1203/04 (H5N1)); test: competition ELISA on recombinant trimeric H5 HA; competitor C179
[18] = biological target: H5 HA A/VN/1203/04 (on pseudotypes and on infectious virus) (influenza A virus A/VN/1203/04 (H5N1)); test: cell-based or functional assay; remark: listed apart in the source
[19] = biological target: H2 HA A/JP/305/57 (on infectious virus) (influenza A virus A/JP/305/57 (H2N2)); test: cell-based or functional assay
[20] = biological target: H6 HA A/teal/HK/WN312/97 (on infectious virus) (influenza A virus A/teal/HK/W312/97 (H6N1)); test: cell-based or functional assay

Binder	Competition (%) [1]	Neutralization of HA-pseudotypes (IC90) [2]	Neutralization of infectious viruses (IC50) [2]	Neutralization of HA-pseudotypes (IC90) [3]	Neutralization of HA-pseudotypes (IC90) [4]	Neutralization of HA-pseudotypes (IC90) [5]	Neutralization of HA-pseudotypes (IC90) [6]	Neutralization of infectious viruses (IC50) [7]	Neutralization of HA-pseudotypes (IC90) [8]	Neutralization H1N1 IC90 [9]	Neutralization of infectious viruses (IC50) [9]	Neutralization H5pp IC90 [10]	Neutralization of HA-pseudotypes (IC90) [10]	Neutralization of infectious viruses (IC50) [11]	K50 [12]	K50 [13]	K50 [14]	K50 [15]	K50 [16]	Competition (%) [17]	further results
FB54 (antibody, V domains shown) VH: QVQLVQSGAEVKKPGSSLKVSCKASGVTFSMYTISWVRQAPGQGLEWMGGIIPLFGTANYEQKFQGRVTITADTSTNTAYMELSSLRSEDTAVYYCARAGTTLTRFNWFDPWGQGTLVTVSS VL: [… about 100 residues …]YTFGQGTKLEIK	< 20%	0.084 µg/mL	16 µg/mL	0.059 µg/mL	0.033 µg/mL	0.021 µg/mL	0.066 µg/mL	9 µg/mL	0.028 µg/mL	12.5 µg/mL	9 µg/mL	0.001 µg/mL	0.036 µg/mL	36 µg/mL	0.186 µg/mL	0.023 µg/mL	38.7 µg/mL	0.018 µg/mL	2.56 µg/mL	100%	
FC41 (antibody, V domains shown) VH: QVQLVQPGAEVKKPGSSVKVSCKASGGIFSPYAISWVRQAPGQGLEWMGGIIAIFGTTNYAQKFQGRVTITADKSTTTAYLELNSLRFEDTAVYYCARGGRYYVDYFDYWGQGTLVSVSS VL: EIVLTQSPGTLSVSPGERATLS[… about 80 residues …]TFGQGTKVEIK	< 20%	0.123 µg/mL	25 µg/mL	0.082 µg/mL	0.044 µg/mL	0.016 µg/mL	0.057 µg/mL	9 µg/mL	0.066 µg/mL	6.2 µg/mL	31 µg/mL	0.001 µg/mL	0.045 µg/mL	20 µg/mL	0.545 µg/mL	0.031 µg/mL	0.264 µg/mL	0.027 µg/mL	0.034 µg/mL	100%	Neutralization of infectious viruses (IC50) [18]: > 12 µg/mL; Neutralization of infectious viruses (IC50) [19]: 25 µg/mL; Neutralization H9N2 IC50 [7]: 0.1 µg/mL; Hemagglutination inhibition titer [8]: < 5; Neutralization H5N1 IC50 [8]: 5 µg/mL; Neutralization of infectious viruses (IC50) [8]: 40 µg/mL; Neutralization of infectious viruses (IC50) [20]: 63 µg/mL

Where two headings read alike, the source gives them in different places.
